# Laboratory results published in PubChem BioAssay AID1159614 (National Center for Advancing Translational Sciences (NCATS), 2016).
# The campaign covered roughly 45,000 compounds. About 65 (0.1%) were called active. The call rests on the fitted dose curve; in most records, active means well fitted activation curve with a large enough effect; inconclusive means small, poorly fitted or top-dose-only effect; inactive means no such curve, though single readings can be large or run the other way. The list shows a part of the results.
# Molecular target: Galactocerebrosidase (Homo sapiens) (UniProt P54803)
# Test: A Novel Cell-Based Assay to Identify Small Molecules for B -Galactocerebrosidase; further: nearly all actives have a fitted effect of over 65% in size; on activation: 0% is about no effect
# Conditions: 145M-Twi-hGALC-G270D cells (Twitcher mouse brain line with human GALC G270D), HMU-beta-Gal fluorescence, 48 h; activation: at the top concentration
# How it was run: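 Brain-derived Twitcher mouse 145M-Twi cells stably expressing human GALC-G270D or wild-type GALC, treated live, then residual GALC activity read by fluorescence of HMU-b-Gal substrate (0.1 mM final) in citrate-phosphate buffer pH 5.2 with sodium taurocholate. Signal increase indicates enhancement.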
# Potency means the concentration at half of the fitted maximal effect.
# Chain of UniProt P54803 (P54803 whole entry, looked up): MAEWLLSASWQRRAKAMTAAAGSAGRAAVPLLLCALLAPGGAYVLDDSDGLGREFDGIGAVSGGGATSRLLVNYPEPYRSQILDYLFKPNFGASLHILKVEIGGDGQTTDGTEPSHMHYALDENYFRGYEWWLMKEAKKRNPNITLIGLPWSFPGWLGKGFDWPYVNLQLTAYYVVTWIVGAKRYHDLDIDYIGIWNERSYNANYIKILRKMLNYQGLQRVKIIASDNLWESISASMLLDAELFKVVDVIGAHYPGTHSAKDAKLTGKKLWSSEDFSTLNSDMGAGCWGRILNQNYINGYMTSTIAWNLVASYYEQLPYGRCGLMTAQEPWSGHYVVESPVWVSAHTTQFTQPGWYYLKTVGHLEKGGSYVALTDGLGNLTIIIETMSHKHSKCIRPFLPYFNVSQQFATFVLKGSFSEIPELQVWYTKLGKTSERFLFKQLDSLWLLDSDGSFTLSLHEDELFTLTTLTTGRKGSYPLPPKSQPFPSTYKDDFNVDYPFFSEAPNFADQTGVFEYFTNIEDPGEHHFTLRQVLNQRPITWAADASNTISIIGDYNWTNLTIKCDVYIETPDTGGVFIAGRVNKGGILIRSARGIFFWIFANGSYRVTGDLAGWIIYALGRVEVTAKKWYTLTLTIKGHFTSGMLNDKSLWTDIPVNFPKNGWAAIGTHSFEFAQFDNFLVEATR
SMILES,activation,Potency
C=CCc1cc(OC)c(O)c(C(=O)NCCO)c1,inactive: -11.8%,
Cc1ccc2c(=O)n(-c3cccc(Cl)c3)c(=O)[nH]c2c1,inactive: -15.5%,
Cc1ccc2nc(NC(=O)c3cccn(Cc4ccccc4F)c3=O)sc2c1,inactive: -11.7%,
CCC(COC(=O)c1cc(OC)c(OC)c(OC)c1)(c1ccccc1)N(C)C (centres undefined),inactive: -16.3%,
COc1cc2[nH]c(=O)n(-c3ccc(C)cc3)c(=O)c2cc1OC,inactive: -7.64%,
CCOCCOC(C)=O,inactive: -13.5% [at 114 µM],
CCN(CC)C(=O)c1ccc(NC(=O)COc2ccc(-c3nn(C)c(=O)c4ccccc34)cc2)cc1,inactive: -5.75%,
CC[N+](CC)(CC)CC,inactive: -11.3%,
CCc1ccc(-n2nc(C)c3c2NC(=O)CSC3c2ccc(C(=O)OC)cc2)cc1 (centres undefined),inactive: -8.35%,
COc1ccccc1-c1nn2c(=O)cc(CN3CCN(C(=O)COc4ccccc4Cl)CC3)nc2s1,inactive: -0.097%,
O=[N+]([O-])c1ccc([As](=O)(O)O)cc1,inactive: -19.3%,
Cc1ccccc1-c1nc(CN2C(=O)CN=C(c3ccccc3)c3ccccc32)c(C)o1,inactive: -19.5%,
CCCc1cc(N2CCN(c3cccc(C)c3C)CC2)n2cnnc2n1,inactive: -23.6%,
CCN(C(C)=O)c1cccc(-c2ccnc3c(C#N)cnn23)c1,inactive: -9.64%,
O=C(Nc1ccc(Br)cc1C(=O)c1ccccc1Cl)c1ccc(Br)cc1,inactive: -12.1%,
COc1cc(OC)cc(C(=O)Nc2ccc(Cl)cc2C(=O)c2ccccc2Cl)c1,inactive: -12%,
CCC12CN3CC(CC)(CN(C1)C3c1c(C)[nH]c(=O)[nH]c1=O)C2=O (centres undefined),inactive: -12.5%,
CC(C)Oc1cccc(NC(=O)c2ccccc2C(F)(F)F)c1,inactive: -17.9% [at 114 µM],
COc1cc(C[C@@H](C)N)c(OC)cc1Br,inactive: -7.4% [at 129 µM],
O=C(Nc1ccc2nc3n(c(=O)c2c1)CCCCC3)c1cccc(C(F)(F)F)c1,inactive: -40.1%,
C[C@@H]1CC[C@H]2[C@@H](C)C(=O)O[C@@H]3O[C@@]4(C)CC[C@@H]1[C@]32OO4,inactive: -12.6%,
CCC1(c2cccc(O)c2)CCCCN(C)C1 (centres undefined),inactive: -5.57%,
C1CCC(NC2CCCCC2)CC1,inactive: -14.3%,

SMILES,activation,Potency
O=c1c2ccccc2nc(/C=C/c2cccc3ccccc23)n1-c1ccc(Cl)cc1,inactive: -17%,
CCN(CC)C(=O)[C@@H]1C=C2c3cccc4[nH]cc(c34)C[C@H]2N(C)C1,inactive: -2.99% [at 273 µM],
COc1ccc(OCC(=O)N2CCN(CCc3ccncc3)CC2)cc1,inactive: -12.7%,
Cc1ccccc1-n1c(/C=C/c2c(C)[nH]c3ccccc23)nc2ccccc2c1=O,inactive: -18.8%,
CNCC(=O)c1ccc(O)c(O)c1,inactive: -16.3%,
O=C(NC(=O)c1c(F)cccc1F)Nc1cc(Cl)c(OC(F)(F)C(F)C(F)(F)F)cc1Cl (centres undefined),inactive: -4.1%,
Cc1ccccc1-n1nc(C)c2c1NC(=O)CSC2c1ccc(Cl)cc1 (centres undefined),inactive: -10.1%,
Cc1ccc(Cn2cccc(C(=O)Nc3cc(C)on3)c2=O)cc1,inactive: -14.6%,
Cc1c(C(c2ccc(Br)cc2)c2c(O)c3ccccc3oc2=O)c(=O)n(-c2ccccc2)n1C (centres undefined),inactive: -17.3%,
C=C(C)[C@H]1Cc2c(ccc3c2O[C@@H]2COc4cc(OC)c(OC)cc4[C@@H]2C3=O)O1,inactive: -9.92%,
CN(C)c1ccc(NC(=O)c2sc3nc4c(cc3c2N)N2CCC4CC2)cc1,inactive: -1.37%,
COC(=O)C1=CCCN(C)C1,inactive: -6.73%,
Fc1ccc(C(OCCN2CCN(CCCc3ccccc3)CC2)c2ccc(F)cc2)cc1,inactive: -42.5%,
CC(C)(C)NCC(O)c1cc(Cl)c(N)c(Cl)c1 (centres undefined),inactive: -12.3%,
CCCC12CN3CC(C)(CN(C1)C3c1c(C)[nH]c(=O)[nH]c1=O)C2=O (centres undefined),inactive: -17.2%,
CCCC1=Nc2cc(C(=O)NCCCN(CC)CC)ccc2Sc2ccccc21,inactive: -13.9%,
COc1ccc(Br)cc1C1SCC(=O)Nc2c1c(C)nn2-c1ccccc1C (centres undefined),inactive: -14.4%,
Cc1ccc(-c2nn3c(=O)cc(CN4CCN(C(=O)COc5ccc(C)c(C)c5)CC4)nc3s2)cc1,inactive: 3.34%,
O=C(N/N=C/c1ccc([N+](=O)[O-])o1)c1cc([N+](=O)[O-])cc([N+](=O)[O-])c1O,inactive: -16%,
CCC1(CC)C(=O)C=CNC1=O,inactive: -3.19%,
Cc1ccc(-c2nc(CN3C(=O)CN=C(c4ccccc4)c4ccccc43)c(C)o2)cc1,inactive: 6.29%,
CCN(CC)C(=O)c1ccc(NC(=O)c2ccc(-c3nn(C)c(=O)c4ccccc34)cc2)cc1,inactive: 6.72%,
C[C@H](CN1CCOCC1)C(C(=O)N1CCCC1)(c1ccccc1)c1ccccc1,inactive: -0.319% [at 129 µM],

SMILES,activation,Potency
Cc1ccc(Cn2cccc(C(=O)Nc3ccc4c(c3)OCCO4)c2=O)cc1,inactive: -20.5%,
COc1ccccc1C1SCC(=O)Nc2c1c(C)nn2-c1cccc(C)c1 (centres undefined),inactive: -10.4%,
COc1cccc(NC(=O)c2cccn(Cc3ccccc3C)c2=O)c1,inactive: -22.1%,
COc1ccc(Cc2nccc3cc(OC)c(OC)cc23)cc1OC,inactive: -11.3%,
CC1(C)C(C=C(Cl)Cl)C1C(=O)OC(C#N)c1cccc(Oc2ccccc2)c1 (centres undefined),inactive: -13.3%,
Oc1cc(Cl)ccc1Oc1ccc(Cl)cc1Cl,inactive,
CCn1cc2nc(SCc3c(F)cccc3Cl)n(CCc3ccccc3)c(=O)c2n1,inactive: -37.9%,
CCCCC12CN3CC(C)(CN(C1)C3c1ccccn1)C2=O (centres undefined),inactive: -12.7%,
CCCCCCCCCCCCCCCCCCN(C)C,inactive: -12.7%,
Cc1cc(C)cc(OCC(=O)Nc2ccc(-c3nc4ccccc4s3)cc2)c1,,active: 39.8 µM
Cc1cccc(-n2nc(C)c3c2NC(=O)CSC3c2ccccc2Cl)c1 (centres undefined),inactive: 1.85%,
CCN(CC)C(C)C(=O)c1ccccc1 (centres undefined),inactive: -13.7%,
CC(C)Cc1nc2cccnc2n1C1CCNCC1,inactive: 0.14%,
CCOc1ccc(CN(CCc2ccc3c(c2)OCO3)Cc2ccc(C)cc2)cc1,inactive: -27.2%,
O=C(N[C@@H]1N=C(c2ccccc2F)c2cccc3c2N(CC3)C1=O)c1cc2ccccc2[nH]1,inactive: 0.717%,
Cc1ccc(NC(=O)Cn2cc(C(=O)c3ccccc3)c3ccccc32)c(C)c1,inactive: -31.3%,
COc1ccc(-n2c(/C=C/c3cccc(F)c3)nc3ccccc3c2=O)cc1Cl,inactive: -3.72%,
Cc1cccc(CN2C(=O)CN=C(c3ccccc3)c3ccccc32)c1,inactive: -28.6%,
CCC(C)C(C)(COC(N)=O)COC(N)=O (centres undefined),inactive: -19%,
COc1cc(CC#N)cc(OC)c1OC,inactive: -13.1%,
COc1ccc2c3c1O[C@H]1[C@H](O)CC[C@H]4[C@@H](C2)N(C)CC[C@@]341,inactive: -4.38% [at 114 µM],
COc1cccc(C2SCC(=O)Nc3c2c(C)nn3-c2ccc(C)c(Cl)c2)c1OC (centres undefined),inactive: -9.96%,
CCc1nc(SC)ncc1C(=O)Nc1ccc(Cl)cc1C(=O)c1ccccc1,inactive: -12.3%,
